# Out of some 280,000 compounds screened, about 100 (0.036%) were called active. The shares of active, inactive and inconclusive entries below differ from those in the screen. The call rests on the fitted dose curve; in most records, active means well fitted inhibition curve with a large enough effect in the signal ratio, with a control signal flat (not every such curve was filed as active); inconclusive means small, poorly fitted or top-dose-only effect, or effect the other way, or a change in a side signal; inactive means no such curve, though single readings can be large or run the other way; the % refers to the signal ratio. Potencies beside an inconclusive call are fits to weak or partial responses and may not hold up. “Side channel” marks fits to a control or component signal instead of the main read-out.
# Target: Muscleblind-like protein 1 (Homo sapiens) (UniProt Q9NR56)
# UniProt Q9NR56, sequence (Q9NR56 whole entry, looked up): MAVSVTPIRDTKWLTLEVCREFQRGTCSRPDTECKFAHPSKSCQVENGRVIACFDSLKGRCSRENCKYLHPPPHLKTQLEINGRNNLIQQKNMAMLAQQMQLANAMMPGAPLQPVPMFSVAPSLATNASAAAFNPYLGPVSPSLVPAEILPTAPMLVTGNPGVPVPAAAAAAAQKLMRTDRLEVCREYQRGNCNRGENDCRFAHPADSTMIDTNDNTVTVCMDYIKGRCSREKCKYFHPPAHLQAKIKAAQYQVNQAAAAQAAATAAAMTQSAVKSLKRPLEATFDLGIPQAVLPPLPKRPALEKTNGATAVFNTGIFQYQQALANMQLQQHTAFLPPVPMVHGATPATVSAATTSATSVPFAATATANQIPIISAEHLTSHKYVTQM
# Experiment: qHTS Assay for Inhibitors of MBNL1-poly(CUG) RNA binding
# Conditions: TR-FRET MBNL1-His/biotin-(CUG)12 binding, 665/545 ratio; activity change, negative = inhibition: at 57.5 µM (top of the series)
# Procedure, shortened: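 His-tagged MBNL1 binding to biotinylated (CUG)12 RNA was measured by TR-FRET using terbium anti-His antibody (0.055 ng/ul final) and streptavidin-XL665 (5 nM final). Compounds were titrated 92 nM to 58 uM; 60 min at room temperature.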
# On the % scale 0 is the no-effect control and ±100 the full control effect; potency means the concentration at half of the fitted maximal effect; tags describe the fitted curve by direction and shape or compound fluorescence and quenching.
Structure (SMILES),Potency,"activity change, negative = inhibition"
Cc1ccc(NC(=O)CSc2nc(C)c(C)c(C)n2)c([N+](=O)[O-])c1,"inconclusive: 15.8 µM [quencher, partial curve]",
N/C(=N\OC(=O)c1ccncc1)c1cccc([N+](=O)[O-])c1,"inconclusive: 1.78 µM [quencher, side channel, full curve]",
Cc1nc(-c2cccnc2)sc1C(=O)Nc1ccc(C(F)(F)F)cc1,"inconclusive: 0.794 µM [quencher, side channel, single point]",
O=C(NCc1ccc2c(c1)OCO2)c1cc([N+](=O)[O-])ccc1N1CCCCC1,"inconclusive: 17.8 µM [quencher, side channel, partial curve]",
CC(=O)Nc1cccc(Oc2ccc3c(c2)C(=O)N(CCC(=O)O)C3=O)c1,"inconclusive: 7.94 µM [quencher, side channel, partial curve]",
CCOC(=O)N1CCN(C(=O)COc2ccc(S(=O)(=O)Nc3ccc(OCC)cc3)cc2)CC1,"inconclusive: 8.91 µM [quencher, side channel, partial curve]",
COc1ccc(CCNC(=O)Cc2cc(OC)c(OC)cc2[N+](=O)[O-])cc1OC,"inconclusive: 14.1 µM [quencher, side channel, partial curve]",
COc1ccc(CNC(=O)Cc2ccc(NC(=O)C3=C(C)OCCS3)cc2)cc1,,inactive: 0.294%
O=C(CNc1ccccc1)c1ccc([N+](=O)[O-])cc1,"inconclusive: 12.6 µM [quencher, side channel, partial curve]",
CCN(CC)C(=O)C1CCCN(C/C=C/c2ccccc2[N+](=O)[O-])C1 (stereo not given),"inconclusive: 31.6 µM [quencher, side channel, single point]",
C/C(=N/NC(=O)CC(=O)N/N=C(\C)c1ccc([N+](=O)[O-])cc1)c1ccc([N+](=O)[O-])cc1,"inconclusive: 31.6 µM [quencher, side channel, partial curve, poor fit]",
COc1ccc(C2C(O)C(c3c[nH]c4ccccc34)=NN2C(=O)CCl)cc1 (stereo not given),"inconclusive: 39.8 µM [quencher, side channel, single point]",
S=C(Nc1ccc2nc(-c3ccccn3)c(-c3ccccn3)nc2c1)N1CCOCC1,"inconclusive: 17.8 µM [quencher, side channel, partial curve]",
COc1cc([N+](=O)[O-])c2nccnc2c1,"inconclusive: 17.8 µM [quencher, side channel, partial curve]",
O=C(COC(=O)c1ccc(-c2nnc(-c3ccccc3)o2)cc1)c1ccccc1,"inconclusive: 1.12 µM [fluorescent, side channel, partial curve]",
CCOc1ccc(S(=O)(=O)N2CCC(C(=O)N3CCN(c4ccccc4)CC3)CC2)cc1,"inconclusive: 39.8 µM [quencher, side channel, single point]",
C=CCOc1ccc(C2OC34CCCCC3C(C#N)(C#N)C2(C#N)C(=N)O4)cc1 (stereo not given),"inconclusive: 31.6 µM [quencher, side channel, single point]",
COc1ccc(NC2CCCN(C(=O)c3ccc4[nH]c(C)c(C)c4c3)C2)cc1 (stereo not given),"inconclusive: 6.31 µM [inhibitor, single point]",
COc1c2ccoc2c(OCC=C(C)C)c2oc(=O)ccc12,"inconclusive: 14.1 µM [quencher, side channel, partial curve]",
CCC(C)n1nccc1NC(=O)C(C)OC(=O)c1cc2ccccc2[nH]1 (stereo not given),,inactive: 10.1%

Structure (SMILES),Potency,"activity change, negative = inhibition"
COc1ccc2c(c1)[nH]c1c(N3CCN(Cc4ccc5c(c4)OCO5)CC3)ncnc12,,inactive: -17.5%
O=C(/C=C/c1ccc([N+](=O)[O-])cc1)NCCc1ccc(F)cc1,"inconclusive: 10 µM [quencher, side channel, partial curve]",
O=C(NCc1cccnc1)c1cccc(-c2cc3ccccc3oc2=O)c1,"inconclusive: 14.1 µM [quencher, partial curve]",
COc1cc(C(=O)OCC(=O)NC2CCS(=O)(=O)C2)ccc1OCc1c(C)noc1C (stereo not given),"inconclusive: 316 µM [inhibitor, partial curve]",
Cc1csc(C(C#N)C(=O)c2cc3ccccc3o2)n1 (stereo not given),"inconclusive: 31.6 µM [quencher, side channel, single point]",
O=C(c1cccs1)N1CCc2c([nH]c3ccccc23)C1c1ccc(Cl)cc1 (stereo not given),,inactive: -2.01%
CCOc1cccc2cc(C(=O)NCc3ccc(OC)cc3)c(=N)oc12,,inactive: 5.86%
O=C(NC(NC(=S)Nc1c(Cl)cccc1Cl)C(Cl)(Cl)Cl)c1cccc([N+](=O)[O-])c1 (stereo not given),"inconclusive: 17.8 µM [quencher, side channel, single point]",
CC(C)(C)c1ccc(C(=O)N2CCCN(c3ccc([N+](=O)[O-])cn3)CC2)cc1,"inconclusive: 11.2 µM [quencher, partial curve]",
O=C(c1cncs1)N1CCCC(CNS(=O)(=O)c2cccs2)C1 (stereo not given),,inactive: -6.1%
COC(=O)c1ccccc1NC(=O)/C=N/O,,inactive: -3.04%
Cc1cc(S(=O)(=O)Nc2ccc3cn[nH]c3c2)c(C)cc1Cl,,inactive: -8.77%
CC1=CC(C)(C)N(C(=O)CCl)c2ccccc21,"inconclusive: 11.2 µM [quencher, side channel, partial curve]",
CCOC(=O)c1sc(=S)n(C)c1N,"inconclusive: 31.6 µM [quencher, single point]",
COC(=O)C1=C(N)N(c2ccccc2F)C2=C(C(=O)CC(C)(C)C2)C1c1ccc(OC)c(OC)c1 (stereo not given),"inconclusive: 0.631 µM [quencher, side channel, full curve, poor fit]",
O=C(Cn1cnc([N+](=O)[O-])n1)c1ccc(O)c(O)c1,"inconclusive: 15.8 µM [quencher, side channel, partial curve]",
CCn1c(=S)[nH]c2c(c1=O)C(C)(C)Cc1ccccc1-2,,inactive: 75.8%
COc1ccc(-c2cc(C(=O)Nc3cccnc3)c3ccccc3n2)cc1OC,"inconclusive: 28.2 µM [quencher, side channel, single point]",
COc1ccc([N+](=O)[O-])cc1NS(=O)(=O)c1cc(C(=O)O)ccc1OC,"inconclusive: 15.8 µM [quencher, side channel, partial curve]",
CCOC(=O)c1ccc(N2C(=O)CC(C3CCCO3)C2=O)cc1 (stereo not given),"inconclusive: 6.31 µM [fluorescent, side channel, single point]",

Structure (SMILES),Potency,"activity change, negative = inhibition"
CCN(CC)C1=NS(=O)(=O)c2cc([N+](=O)[O-])ccc21,"inconclusive: 10 µM [quencher, side channel, partial curve]",
CC(Sc1nnc2c(n1)[nH]c1ccccc12)C(=O)N(C)C1CCCCC1 (stereo not given),"inconclusive: 17.8 µM [quencher, partial curve]",
O=C(CCS(=O)(=O)c1cccc2nonc12)NCCc1ccccc1,"inconclusive: 12.6 µM [quencher, side channel, partial curve]",
O=[N+]([O-])c1ccc(Oc2ccc(F)cc2Br)c2ccncc12,"inconclusive: 17.8 µM [quencher, side channel, partial curve]",
C[n+]1ccccc1/C=C1\Sc2ccccc2N1CCO,"inconclusive: 14.1 µM [quencher, partial curve]",
CCn1c(C)nc2cc(C(=O)N/N=C/c3ccc(OC)c(O)c3)ccc21,"inconclusive: 15.8 µM [quencher, side channel, partial curve]",
O=C(c1ccccc1)c1ccc(OCC(O)CNCc2ccc(F)cc2)cc1 (stereo not given),,inactive: 10.3%
CNc1cc([N+](=O)[O-])ccc1N/C=C/C(=O)c1ccc2c(c1)OCO2,"inconclusive: 3.55 µM [quencher, side channel, partial curve, poor fit]",
OC(COc1ccccc1)CN1CCC(Cc2ccccc2)CC1 (stereo not given),,inactive: -4.03%
COc1ccc(/C=C2\SC(=O)N(CC(=O)Nc3ccc(F)cc3)C2=O)cc1O,"inconclusive: 8.91 µM [quencher, side channel, partial curve]",
O=C1C(Nc2ccc(O)cc2)=C/C(=N/S(=O)(=O)c2cccs2)c2ccccc21,"inconclusive: 15.8 µM [quencher, side channel, partial curve]",
O=CN1CCN(C(C(=O)NC2CCCC2)c2cc3c(cc2[N+](=O)[O-])OCO3)CC1 (stereo not given),"inconclusive: 28.2 µM [quencher, side channel, single point]",
COC(=O)N/N=C/c1ccc(-c2ccccc2Cl)o1,"inconclusive: 25.1 µM [quencher, side channel, partial curve]",
O=C(CC1Nc2ccccc2NC1=O)NCc1cccnc1 (stereo not given),"inconclusive: 35.5 µM [quencher, side channel, single point]",
CC(=O)c1ccc(C(=O)NC2CCCN(Cc3ccc(Cl)cc3)C2)s1 (stereo not given),"inconclusive: 25.1 µM [quencher, side channel, single point]",
COc1ccc(S(=O)(=O)N2CC(C(=O)O)Oc3ccc(CC(=O)O)cc32)cc1 (stereo not given),,inactive: -5.49%
CC(=O)Nc1cccc(NS(=O)(=O)c2cccc3nsnc23)c1,"inconclusive: 14.1 µM [quencher, side channel, partial curve]",
COc1ccc(NC(=S)NCc2ccco2)cc1,,inactive: -4.5%
CC(C)(C)c1nnc(NC(=S)Nc2ccccc2)s1,,inactive: -1.29%
CCCC(=O)Nc1ccc2c(c1)nc(CN1CCN(C(=O)OCC)CC1)n2CC,,inactive: -9.53%

# Reference: PubChem BioAssay AID2675 (National Center for Advancing Translational Sciences (NCATS), 2010)
